# From the supplement of paper PMC8728848
# Some of the results follow.
# Legend:
# Assay in all cases: glycan array binding signal (z-score within array); higher = stronger binding
# Settings in all cases: glycan notation: IUPAC condensed, linker removed
# Fuc(a1-2)Gal = biological target: Fuc(a1-2)Gal
# Summary of the method: (§1)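 Arrays were curated from the Consortium for Functional Glycomics database, 3228 in total, and kept only where the protein sequence was available. Binding is expressed as a within-array Z-score. This score was averaged across arrays of the same protein sequence at different concentrations or buffers and across linkers, and negative values can be read as non-binding.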
# Fuc(a1-2)Gal(b1-3)GalNAc = biological target: Fuc(a1-2)Gal(b1-3)GalNAc
# Summary of the method: as §1
# [1] = biological target: Fuc(a1-2)Gal(b1-3)GalNAc(a1-3)[Fuc(a1-2)]Gal(b1-4)Glc
# Summary of the method: as §1
# [2] = biological target: Fuc(a1-2)Gal(b1-3)GalNAc(a1-3)[Fuc(a1-2)]Gal(b1-4)GlcNAc
# Summary of the method: as §1
# [3] = biological target: Fuc(a1-2)Gal(b1-3)GalNAc(b1-3)Gal
# Summary of the method: as §1
# [4] = biological target: Fuc(a1-2)Gal(b1-3)GalNAc(b1-3)Gal(a1-4)Gal(b1-4)Glc
# Summary of the method: as §1
# [5] = biological target: Fuc(a1-2)Gal(b1-3)GalNAc(b1-4)[Neu5Ac(a2-3)]Gal(b1-4)Glc
# Summary of the method: as §1
# Fuc(a1-2)Gal(b1-3)GlcNAc = biological target: Fuc(a1-2)Gal(b1-3)GlcNAc
# Summary of the method: as §1
# [6] = biological target: Fuc(a1-2)Gal(b1-3)GlcNAc(b1-2)Man(a1-3)[Fuc(a1-2)Gal(b1-3)GlcNAc(b1-2)Man(a1-6)]Man(b1-4)GlcNAc(b1-4)GlcNAc
# Summary of the method: as §1
# [7] = biological target: Fuc(a1-2)Gal(b1-3)GlcNAc(b1-2)Man(a1-3)[Fuc(a1-2)Gal(b1-3)GlcNAc(b1-2)Man(a1-6)]Man(b1-4)GlcNAc(b1-4)[Fuc(a1-6)]GlcNAc
# Summary of the method: as §1
# [8] = biological target: Fuc(a1-2)Gal(b1-3)GlcNAc(b1-3)Gal(b1-4)Glc
# Summary of the method: as §1
# [9] = biological target: Fuc(a1-2)Gal(b1-3)GlcNAc(b1-3)GalNAc
# Summary of the method: as §1
# [10] = biological target: Fuc(a1-2)Gal(b1-3)GlcNAc(b1-3)[Fuc(a1-2)Gal(b1-3)GlcNAc(b1-6)]GalNAc
# Summary of the method: as §1
# [11] = biological target: Fuc(a1-2)Gal(b1-3)GlcNAc(b1-3)[Gal(b1-4)GlcNAc(b1-6)]Gal(b1-4)Glc
# Summary of the method: as §1
# [12] = biological target: Fuc(a1-2)Gal(b1-3)GlcNAc(b1-3)[Neu5Ac(a2-6)Gal(b1-4)GlcNAc(b1-6)]Gal(b1-4)Glc
# Summary of the method: as §1
# [13] = biological target: Fuc(a1-2)Gal(b1-3)GlcNAc6S
# Summary of the method: as §1
# [14] = biological target: Fuc(a1-2)Gal(b1-3)[Fuc(a1-4)]GlcNAc
# Summary of the method: as §1
# [15] = biological target: Fuc(a1-2)Gal(b1-3)[Fuc(a1-4)]GlcNAc(b1-2)Man(a1-3)[Fuc(a1-2)Gal(b1-3)[Fuc(a1-4)]GlcNAc(b1-2)Man(a1-3)]Man(b1-4)GlcNAc(b1-4)GlcNAc
# Summary of the method: as §1
# [16] = biological target: Fuc(a1-2)Gal(b1-3)[Fuc(a1-4)]GlcNAc(b1-2)Man(a1-3)[Fuc(a1-2)Gal(b1-3)[Fuc(a1-4)]GlcNAc(b1-2)Man(a1-6)]Man(b1-4)GlcNAc(b1-4)[Fuc(a1-6)]GlcNAc(b1-4)[Fuc(a1-6)]GlcNAc
# Summary of the method: as §1
# [17] = biological target: Fuc(a1-2)Gal(b1-3)[Fuc(a1-4)]GlcNAc(b1-3)[Fuc(a1-3)[Gal(b1-4)]GlcNAc(b1-6)]Gal(b1-4)Glc
# Summary of the method: as §1
# [18] = biological target: Fuc(a1-2)Gal(b1-3)[Fuc(a1-4)]GlcNAc(b1-3)[Gal(b1-4)GlcNAc(b1-6)]Gal(b1-4)Glc
# Summary of the method: as §1
# Fuc(a1-2)Gal(b1-4)Glc = biological target: Fuc(a1-2)Gal(b1-4)Glc
# Summary of the method: as §1
# Fuc(a1-2)Gal(b1-4)Glc6S = biological target: Fuc(a1-2)Gal(b1-4)Glc6S
# Summary of the method: as §1
# Fuc(a1-2)Gal(b1-4)GlcNAc = biological target: Fuc(a1-2)Gal(b1-4)GlcNAc
# Summary of the method: as §1
# [19] = biological target: Fuc(a1-2)Gal(b1-4)GlcNAc(b1-2)Man
# Summary of the method: as §1
# [20] = biological target: Fuc(a1-2)Gal(b1-4)GlcNAc(b1-2)Man(a1-3)[Fuc(a1-2)Gal(b1-4)GlcNAc(b1-2)Man(a1-6)]Man(b1-4)GlcNAc(b1-4)GlcNAc
# Summary of the method: as §1
# [21] = biological target: Fuc(a1-2)Gal(b1-4)GlcNAc(b1-2)Man(a1-3)[Fuc(a1-2)Gal(b1-4)GlcNAc(b1-2)Man(a1-6)]Man(b1-4)GlcNAc(b1-4)[Fuc(a1-6)]GlcNAc
# Summary of the method: as §1
# [22] = biological target: Fuc(a1-2)Gal(b1-4)GlcNAc(b1-2)[Fuc(a1-2)Gal(b1-4)GlcNAc(b1-4)]Man(a1-3)[Fuc(a1-2)Gal(b1-4)GlcNAc(b1-2)Man(a1-6)]Man(b1-4)GlcNAc(b1-4)GlcNAc
# Summary of the method: as §1
# [23] = biological target: Fuc(a1-2)Gal(b1-4)GlcNAc(b1-3)Gal(b1-4)GlcNAc
# Summary of the method: as §1
# [24] = biological target: Fuc(a1-2)Gal(b1-4)GlcNAc(b1-3)Gal(b1-4)GlcNAc(b1-2)Man(a1-3)[Fuc(a1-2)Gal(b1-4)GlcNAc(b1-3)Gal(b1-4)GlcNAc(b1-2)Man(a1-6)]Man(b1-4)GlcNAc(b1-4)GlcNAc
# Summary of the method: as §1
# [25] = biological target: Fuc(a1-2)Gal(b1-4)GlcNAc(b1-3)Gal(b1-4)GlcNAc(b1-3)Gal(b1-4)GlcNAc
# Summary of the method: as §1
# [26] = biological target: Fuc(a1-2)Gal(b1-4)GlcNAc(b1-3)GalNAc
# Summary of the method: as §1
# [27] = biological target: Fuc(a1-2)Gal(b1-4)GlcNAc(b1-3)[Fuc(a1-2)Gal(b1-4)GlcNAc(b1-6)]GalNAc
# Summary of the method: as §1
# [28] = biological target: Fuc(a1-2)Gal(b1-4)GlcNAc(b1-3)[Fuc(a1-3)[Gal(b1-4)]GlcNAc(b1-6)]Gal(b1-4)Glc
# Summary of the method: as §1
# [29] = biological target: Fuc(a1-2)Gal(b1-4)GlcNAc(b1-6)GalNAc
# Summary of the method: as §1
# [30] = biological target: Fuc(a1-2)Gal(b1-4)GlcNAc6S
# Summary of the method: as §1
# [31] = biological target: Fuc(a1-2)Gal(b1-4)[Fuc(a1-3)]GlcNAc
# Summary of the method: as §1
# [32] = biological target: Fuc(a1-2)Gal(b1-4)[Fuc(a1-3)]GlcNAc(b1-2)Man(a1-3)[Fuc(a1-2)Gal(b1-4)[Fuc(a1-3)]GlcNAc(b1-2)Man(a1-6)]Man(b1-4)GlcNAc(b1-4)[Fuc(a1-6)]GlcNAc
# Summary of the method: as §1
# [33] = biological target: Fuc(a1-2)Gal(b1-4)[Fuc(a1-3)]GlcNAc(b1-2)[Fuc(a1-2)Gal(b1-4)[Fuc(a1-3)]GlcNAc(b1-4)]Man(a1-3)[Fuc(a1-2)Gal(b1-4)[Fuc(a1-3)]GlcNAc(b1-2)Man(a1-6)]Man(b1-4)GlcNAc(b1-4)GlcNAc
# Summary of the method: as §1
# [34] = biological target: Fuc(a1-2)Gal(b1-4)[Fuc(a1-3)]GlcNAc(b1-3)Gal(b1-4)[Fuc(a1-3)]GlcNAc
# Summary of the method: as §1
# [35] = biological target: Fuc(a1-2)Gal(b1-4)[Fuc(a1-3)]GlcNAc(b1-3)Gal(b1-4)[Fuc(a1-3)]GlcNAc(b1-3)Gal(b1-4)[Fuc(a1-3)]GlcNAc
# Summary of the method: as §1
# [36] = biological target: Fuc(a1-2)Gal(b1-4)[Fuc(a1-3)]GlcNAc(b1-3)GalNAc
# Summary of the method: as §1
# [37] = biological target: Fuc(a1-2)Gal(b1-4)[Fuc(a1-3)]GlcNAc(b1-3)[Neu5Ac(a2-6)Gal(b1-4)GlcNAc(b1-6)]Gal(b1-4)Glc
# Summary of the method: as §1
# [38] = biological target: Fuc(a1-2)Gal3S(b1-4)GlcNAc
# Summary of the method: as §1
# [39] = biological target: Fuc(a1-2)Gal6S(b1-3)GlcNAc
# Summary of the method: as §1
binder,measurement,setting,value
Cohesin-marm-DC-ASGPR (protein) LDITSHHHHHHDDLDAVRIKVDTVNAKPGDTVRIPVRFSGIPSKGIANCDFVYSYDPNVLEIIEIEPGDIIVDPNPDKSFDTAVYPDRKIIVFLFAEDSGTGAYAITKDGVFATIVAKVKEGAPNGLSVIKFVEVGGFANNDLVEQKTQFFDGGVNVGDTTEPATPTTPVTTPTTTDDLDAASSKFQRDLVTLRTDFSNFTSNTLAEIQALTSQGSSLQETIASLKAEVEGHKQELQAGASELQEHNKQKAHLGRCPHTCVCPSSFVCVPVHSEILLRVQQLVQDLNKLSCQVAILKNNATTERTCCPINWVEHQGSCYWFSRSGKTWPEAERYCQLENTHLVVINSREEQNFVQAHLGSAYTWMGLSDPEGVWKWVDGTDYSSGFQNWKPGQPDDWQGHGLGGGEDCAHFHPDGRWNDDVCQRSYHWVCEAGLTQASQDSHAS,glycan array binding signal (z-score),Fuc(a1-2)Gal,-0.26
same,glycan array binding signal (z-score),Fuc(a1-2)Gal(b1-3)GalNAc,-0.307
same,glycan array binding signal (z-score),[1],-0.307
same,glycan array binding signal (z-score),[2],-0.268
same,glycan array binding signal (z-score),[3],0.919
same,glycan array binding signal (z-score),[4],-0.282
same,glycan array binding signal (z-score),[5],-0.213
same,glycan array binding signal (z-score),Fuc(a1-2)Gal(b1-3)GlcNAc,-0.277
same,glycan array binding signal (z-score),[6],-0.215
same,glycan array binding signal (z-score),[7],-0.204
same,glycan array binding signal (z-score),[8],-0.3
same,glycan array binding signal (z-score),[9],-0.296
same,glycan array binding signal (z-score),[10],-0.305
same,glycan array binding signal (z-score),[11],-0.279
same,glycan array binding signal (z-score),[12],-0.279
same,glycan array binding signal (z-score),[13],-0.059
same,glycan array binding signal (z-score),[14],-0.259
same,glycan array binding signal (z-score),[15],-0.263
same,glycan array binding signal (z-score),[16],-0.286
same,glycan array binding signal (z-score),[17],-0.308
same,glycan array binding signal (z-score),[18],-0.301
same,glycan array binding signal (z-score),Fuc(a1-2)Gal(b1-4)Glc,-0.234
same,glycan array binding signal (z-score),Fuc(a1-2)Gal(b1-4)Glc6S,-0.294
same,glycan array binding signal (z-score),Fuc(a1-2)Gal(b1-4)GlcNAc,-0.265
same,glycan array binding signal (z-score),[19],-0.292
same,glycan array binding signal (z-score),[20],-0.208
same,glycan array binding signal (z-score),[21],-0.194
same,glycan array binding signal (z-score),[22],-0.267
same,glycan array binding signal (z-score),[23],-0.301
same,glycan array binding signal (z-score),[24],-0.25
same,glycan array binding signal (z-score),[25],-0.306
same,glycan array binding signal (z-score),[26],-0.301
same,glycan array binding signal (z-score),[27],-0.236
same,glycan array binding signal (z-score),[28],-0.313
same,glycan array binding signal (z-score),[29],4.84
same,glycan array binding signal (z-score),[30],-0.303
same,glycan array binding signal (z-score),[31],-0.289
same,glycan array binding signal (z-score),[32],-0.298
same,glycan array binding signal (z-score),[33],-0.297
same,glycan array binding signal (z-score),[34],-0.308
same,glycan array binding signal (z-score),[35],-0.299
same,glycan array binding signal (z-score),[36],-0.263
same,glycan array binding signal (z-score),[37],-0.298
same,glycan array binding signal (z-score),[38],-0.307
same,glycan array binding signal (z-score),[39],-0.302
